Source: the supplement of paper PMC8728848
The other results are listed elsewhere or left out.

Legend:
Assay in all cases: glycan array binding signal (z-score within array); higher = stronger binding
Details in all cases: glycan notation: IUPAC condensed, linker removed
[1] = biological target: Man(a1-2)Man(a1-2)Man(a1-3)Man
Summary of the method: (§1)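 The Consortium for Functional Glycomics database supplied 3228 glycan arrays, of which those lacking an available protein sequence were dropped. The binding signal, a within-array Z-score, was averaged across arrays of the same protein sequence and across linkers. Negative scores can be read as non-binding.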

[2] = biological target: Man(a1-2)Man(a1-2)Man(a1-6)[Man(a1-3)]Man
Summary of the method: as §1

Man(a1-2)Man(a1-3)Man = biological target: Man(a1-2)Man(a1-3)Man
Summary of the method: as §1

[3] = biological target: Man(a1-2)Man(a1-3)[Man(a1-2)Man(a1-6)]Man
Summary of the method: as §1

[4] = biological target: Man(a1-2)Man(a1-3)[Man(a1-2)Man(a1-6)]Man(a1-6)[Man(a1-2)Man(a1-2)Man(a1-3)]Man
Summary of the method: as §1

[5] = biological target: Man(a1-2)Man(a1-3)[Man(a1-2)Man(a1-6)]Man(a1-6)[Man(a1-2)Man(a1-2)Man(a1-3)]Man(b1-4)GlcNAc(b1-4)GlcNAc
Summary of the method: as §1

[6] = biological target: Man(a1-2)Man(a1-3)[Man(a1-6)]Man(a1-6)[Man(a1-2)Man(a1-3)]Man(b1-4)GlcNAc(b1-4)GlcNAc
Summary of the method: as §1

[7] = biological target: Man(a1-2)Man(a1-6)[Man(a1-3)]Man(a1-6)[Man(a1-2)Man(a1-2)Man(a1-3)]Man
Summary of the method: as §1

[8] = biological target: Man(a1-2)Man(a1-6)[Man(a1-3)]Man(a1-6)[Man(a1-2)Man(a1-2)Man(a1-3)]Man(b1-4)GlcNAc(b1-4)GlcNAc
Summary of the method: as §1

Man(a1-3)[Man(a1-6)]Man = biological target: Man(a1-3)[Man(a1-6)]Man
Summary of the method: as §1

[9] = biological target: Man(a1-3)[Man(a1-6)]Man(a1-6)[Man(a1-2)Man(a1-3)]Man(b1-4)GlcNAc(b1-4)GlcNAc
Summary of the method: as §1

[10] = biological target: Man(a1-3)[Man(a1-6)]Man(a1-6)[Man(a1-3)]Man
Summary of the method: as §1

[11] = biological target: Man(a1-3)[Man(a1-6)]Man(a1-6)[Man(a1-3)]Man(b1-4)GlcNAc(b1-4)GlcNAc
Summary of the method: as §1

[12] = biological target: Man(a1-3)[Man(a1-6)]Man(b1-4)GlcNAc(b1-4)GlcNAc
Summary of the method: as §1

[13] = biological target: Man(a1-3)[Man(a1-6)]Man(b1-4)GlcNAc(b1-4)[Fuc(a1-6)]GlcNAc
Summary of the method: as §1

Man(a1-6)Man = biological target: Man(a1-6)Man
Summary of the method: as §1

Man(b1-4)GlcNAc = biological target: Man(b1-4)GlcNAc
Summary of the method: as §1

MurNAc(b1-4)GlcNAc = biological target: MurNAc(b1-4)GlcNAc
Summary of the method: as §1

Neu5Ac(a2-3)Gal = biological target: Neu5Ac(a2-3)Gal
Summary of the method: as §1

[14] = biological target: Neu5Ac(a2-3)Gal(b1-3)GalNAc
Summary of the method: as §1

[15] = biological target: Neu5Ac(a2-3)Gal(b1-3)GalNAc(b1-3)Gal(a1-4)Gal(b1-4)Glc
Summary of the method: as §1

[16] = biological target: Neu5Ac(a2-3)Gal(b1-3)GalNAc(b1-4)Gal(b1-4)Glc
Summary of the method: as §1

[17] = biological target: Neu5Ac(a2-3)Gal(b1-3)GalNAc(b1-4)[Neu5Ac(a2-3)]Gal(b1-4)Glc
Summary of the method: as §1

[18] = biological target: Neu5Ac(a2-3)Gal(b1-3)GalNAc(b1-4)[Neu5Ac(a2-8)Neu5Ac(a2-3)]Gal(b1-4)Glc
Summary of the method: as §1

[19] = biological target: Neu5Ac(a2-3)Gal(b1-3)GalNAc6S
Summary of the method: as §1

[20] = biological target: Neu5Ac(a2-3)Gal(b1-3)GlcNAc
Summary of the method: as §1

[21] = biological target: Neu5Ac(a2-3)Gal(b1-3)GlcNAc(b1-2)Man
Summary of the method: as §1

[22] = biological target: Neu5Ac(a2-3)Gal(b1-3)GlcNAc(b1-2)Man(a1-3)[GlcNAc(b1-4)][Neu5Ac(a2-3)Gal(b1-3)GlcNAc(b1-2)Man(a1-6)]Man(b1-4)GlcNAc(b1-4)GlcNAc
Summary of the method: as §1

[23] = biological target: Neu5Ac(a2-3)Gal(b1-3)GlcNAc(b1-2)Man(a1-3)[Neu5Ac(a2-3)Gal(b1-3)GlcNAc(b1-2)Man(a1-6)]Man(b1-4)GlcNAc(b1-4)GlcNAc
Summary of the method: as §1

[24] = biological target: Neu5Ac(a2-3)Gal(b1-3)GlcNAc(b1-2)[Neu5Ac(a2-3)Gal(b1-3)GlcNAc(b1-4)]Man(a1-6)[Neu5Ac(a2-3)Gal(b1-3)GlcNAc(b1-2)Man(a1-3)]Man(b1-4)GlcNAc(b1-4)GlcNAc
Summary of the method: as §1

[25] = biological target: Neu5Ac(a2-3)Gal(b1-3)GlcNAc(b1-3)Gal(b1-3)GlcNAc
Summary of the method: as §1

[26] = biological target: Neu5Ac(a2-3)Gal(b1-3)GlcNAc(b1-3)Gal(b1-4)GlcNAc
Summary of the method: as §1

[27] = biological target: Neu5Ac(a2-3)Gal(b1-3)GlcNAc(b1-3)GalNAc
Summary of the method: as §1

[28] = biological target: Neu5Ac(a2-3)Gal(b1-3)GlcNAc(b1-4)Gal(b1-4)Glc
Summary of the method: as §1

[29] = biological target: Neu5Ac(a2-3)Gal(b1-3)GlcNAc(b1-6)GalNAc
Summary of the method: as §1

[30] = biological target: Neu5Ac(a2-3)Gal(b1-3)GlcNAc6S
Summary of the method: as §1

[31] = biological target: Neu5Ac(a2-3)Gal(b1-3)[Fuc(a1-4)]GlcNAc
Summary of the method: as §1

B1: rAAL-2 (Agrocybe aegerita) (protein)
chain: MTSNVITQDLPIPVASRGFADIVGFGLDGVVIGRNAVNLQPFLAVKNFAQNAGGWLTTKHVRLIADTTGTGKGDIVGFGNAGVYVSVNNGKNTFADPPKMVIANFGYDAGGWRVEKHLRYLADIRKIGRADIIGFGEKGVLVSRNNGGLNFGPATLVLKDFGYDAGGWRLDRHLRFLADVTGNGHLDIVGFGDKHVFISRNNGDGTFAPAKSVIDNFCIDAGGWKIGDHPRFVADLTGDGTADIIGCGKAGCWVALNNGGGVFGQVKLVINDFGTDKGWQAAKHPRFIADLTGNGRGDVVGFGNAGVYVALNNGDGTFQSAKLVLKDFGVQQGWTVSKHRRFVVDLTGDGCADIIGFGEKETLVSYNDGKGNFGPVKALTNDFSFSGGKWAPETTVCWMANLDSSRH
In the case of B1, the “glycan array binding signal (z-score)” value [1] is reported as -0.217, the “glycan array binding signal (z-score)” value [2] is reported as -0.259 and the “glycan array binding signal (z-score)” value (Man(a1-2)Man(a1-3)Man) is reported as -0.33. The “glycan array binding signal (z-score)” value [3] was -0.275, the “glycan array binding signal (z-score)” value [4] was -0.35 and the “glycan array binding signal (z-score)” value [5] was -0.274. The “glycan array binding signal (z-score)” value [6] was -0.277, the “glycan array binding signal (z-score)” value [7] was -0.274 and the “glycan array binding signal (z-score)” value [8] was 0.05. For the same binder, the “glycan array binding signal (z-score)” value (Man(a1-3)[Man(a1-6)]Man) was -0.295, the “glycan array binding signal (z-score)” value [9] was 0.154 and the “glycan array binding signal (z-score)” value [10] was -0.208. The “glycan array binding signal (z-score)” value [11] was -0.202, the “glycan array binding signal (z-score)” value [12] was -0.239 and the “glycan array binding signal (z-score)” value [13] was -0.087. The “glycan array binding signal (z-score)” value (Man(a1-6)Man) was -0.177, the “glycan array binding signal (z-score)” value (Man(b1-4)GlcNAc) was -0.144 and the “glycan array binding signal (z-score)” value (MurNAc(b1-4)GlcNAc) was -0.168. For the same binder, the “glycan array binding signal (z-score)” value (Neu5Ac(a2-3)Gal) was -0.244, the “glycan array binding signal (z-score)” value [14] was -0.184 and the “glycan array binding signal (z-score)” value [15] was -0.228. The “glycan array binding signal (z-score)” value [16] was 0.227, the “glycan array binding signal (z-score)” value [17] was -0.236 and the “glycan array binding signal (z-score)” value [18] was -0.103. The “glycan array binding signal (z-score)” value [19] was -0.202, the “glycan array binding signal (z-score)” value [20] was -0.333 and the “glycan array binding signal (z-score)” value [21] was -0.53. For the same binder, the “glycan array binding signal (z-score)” value [22] was -0.083, the “glycan array binding signal (z-score)” value [23] was -0.408 and the “glycan array binding signal (z-score)” value [24] was -0.014. The “glycan array binding signal (z-score)” value [25] was -0.277, the “glycan array binding signal (z-score)” value [26] was -0.374 and the “glycan array binding signal (z-score)” value [27] was -0.061. The “glycan array binding signal (z-score)” value [28] was -0.285, the “glycan array binding signal (z-score)” value [29] was -0.419 and the “glycan array binding signal (z-score)” value [30] was 0.016. The “glycan array binding signal (z-score)” value [31] was -0.392.
